Assay results published in publication PMC12136788.
The list shows a part of the results.

B1: chr12:57064132:57064133:-_ENSG00000110958_ENST00000262033|hu_mus|FALSE|FALSE (ssRNA)
RNA: GGGAGUUCUACAGUCCGACGAUCCGACAUGUCUUCAUCUGAGUCAUCCUCCCAGUCUUUCCAAUUAUUGAAGUCCACACUGAGCCAAUUAAGCUUUGCCCUUUCCUUUGUUAACCUAGGCCAUGACUGGCCGGAUUCUCCUUUCAACAGAGGAUUGAGCAUCA
B2: chr3:176767854:176767855:-_ENSG00000177565_ENST00000430069|hu_hu|hu_hu_hu_mus_False|38_78 (ssRNA)
RNA: GGGAGUUCUACAGUCCGACGAUCGACAUCCUUGUUACUGGGCACGUCCUGCCCUCCUUCUCGUAUACAGUGUCUAAGCACGAGCUGCGUAGGGCCACUGGUGCUGUUCUCACUGAGGUUCCAGAUUCUUGCCGUGGAGUCUCCCAACAGAGGAUUGAGCAUCA
B3: chr7:87731985:87731986:-_ENSMUSG00000030527_ENSMUST00000122255|mus_mus|motif|central (ssRNA)
RNA: GGGAGUUCUACAGUCCGACGAUCUGAAGAGAGGUCUGGGGAAGCCGGUAGCCACUUCAAUGCUGCCGCCUAAGACAGGCGGGUCACAAAGGCAGCAUCGAGUGCAGGCUCACACGACUGCAGCAGGGCAACGCAGUCUCCUGCCAACAGAGGAUUGAGCAUCA
B4: chrX:98860016:98860017:+_ENSMUSG00000034160_ENSMUST00000044475|mus_mus|FALSE|FALSE (ssRNA)
RNA: GGGAGUUCUACAGUCCGACGAUCUUCUUUAUAGUGCAUCAGUGCUUCCUGCAGCUUGCCCUGCUGUUGCAGUACACUUGCUAAAUUGGAAUGUGCAGCAGCAAACUCUGGGAAGACUUCUAAUGCUUUGCGAUACAGGCGAACCAACAGAGGAUUGAGCAUCA
B5: 82950143_82950263_550_CDS_ENSG00000005700_ENST00000306270|human|control|control (ssRNA)
RNA: GGGAGUUCUACAGUCCGACGAUCAUCCAAAGCAUGCUUCAGGGAUCGACACUUUGAUGUGCAGUCAGGCAUGGGUGAACUCAUCCUAACUGUUUUUAUACCACUUACUUCAGAAUCGUGAAAACUAAUUUUAAAAAAUGAAAACAACAGAGGAUUGAGCAUCA
B6: chr3:101181902:101181903:+_ENSMUSG00000042035_ENSMUST00000043983|mus_mus|FALSE|FALSE (ssRNA)
RNA: GGGAGUUCUACAGUCCGACGAUCUGAGAUCGCUCAUUCGGAUCCCCCAAAGGGAACCAGGCAGGUUUUGUCAAAACCCAAGACAGCCAAAACACCCGGAUUGGUAAAGACACUUCGGAUUUCUUCAUCAAAAAGUCCAUCUCCCAACAGAGGAUUGAGCAUCA
B7: 119178578_119178698_1814_3pUTR_ENSMUSG00000018076_ENSMUST00000100816|mouse|control|control (ssRNA)
RNA: GGGAGUUCUACAGUCCGACGAUCGAGGCAGUCUUUGGCCUACGAGGACAGUUCUGUCCUCUAUAGUAGACAGCUGCUGAAGGUCUAGCCCAUUUCCAUAGAGGGCAGGGUUCACAGGGACAGAAGGUGGGUCCAAACUCUCUGCAACAGAGGAUUGAGCAUCA
B8: chr7:44244176:44244177:+_ENSG00000106636_ENST00000223369|hu_mus|hu_hu_hu_mus_False|1_18 (ssRNA)
RNA: GGGAGUUCUACAGUCCGACGAUCACUGUCGCUCCGGACGUAGACAUGGCAAAGAUACUCUUGUUCUUUGACAGAAGCUCUGCUGCCUUUCCCCGAGCGUUCCACAAUCAGUUGACUCGUGAAGGUCAUGAAUUCCUGAACGCUCAACAGAGGAUUGAGCAUCA
B9: 28426260_28490093_4108_CDS_ENSG00000100154_ENST00000397906|human|control|control (ssRNA)
RNA: GGGAGUUCUACAGUCCGACGAUCGUCAGUGACCGAGUUGAGUUUGUUGUUCAUCUCUUCAAAUUGCUGGUCCAUGAUGUCUCCCGCUUCACUCUCUGUCUCACUGCUGGCACAGGCCCUUGAGUAGUGAGACUCCACCCCCAGCAACAGAGGAUUGAGCAUCA
B10: chr1:60041781:60041782:+_ENSMUSG00000041040_ENSMUST00000036540|mus_hu|mus_mus_mus_hu_False|8_108 (ssRNA)
RNA: GGGAGUUCUACAGUCCGACGAUCAAGAGGAGUGAAUUAAAGUAAAUGCAGUAGUGGCAAAUUUUCUUUUAUUUUCCUUCACAAAAGAAAAUCUUUAUAACCCAGUCCUAGUCUUGGACAUAGUGAAUCUCCAUGGGUCUGACUCAACAGAGGAUUGAGCAUCA
B11: chr5:138651791:138651792:+_ENSG00000015479_ENST00000502499|hu_mus|FALSE|FALSE (ssRNA)
RNA: GGGAGUUCUACAGUCCGACGAUCUCCUCCAAGAUGAAAUGAAGGAGGCGGCGGUCCCAGAAUCCCUGGUGCUGGGUUUGUAGACUGCUGCAGCAUGAAUGGAUCACCCAUUGUGUGUCCAGUAUCAUUGUCAGGAUUCCAUUCCAACAGAGGAUUGAGCAUCA
B12: 3419237_3424114_2893_CDS_ENSG00000159788_ENST00000382788|human|control|control (ssRNA)
RNA: GGGAGUUCUACAGUCCGACGAUCGCAGGCCUCCGACAGGUCCAGGCUCCCCGCAGAGGACACAGAGCCCUGCGACUCUCGGCGACACAGGCCUCCAUUGGCAUGCAGGGCGUCGUCUGCGUGGUCCCCGUGCUCCCUCUUUUUCAACAGAGGAUUGAGCAUCA
B13: chr8:30655213:30655214:-_ENSG00000104695_ENST00000221138|hu_mus|FALSE|FALSE (ssRNA)
RNA: GGGAGUUCUACAGUCCGACGAUCCACGUUGGCAUUUCCAUACUUCCGUAGGCACUCAUCAUAAAAGCCAUACACUUGUGUGAUCUGCCGGCUUUCGUGAUUUCCUCGCAAUAUUGUGAUGCGCUCUGGAUAGCGCACCUUUAACAACAGAGGAUUGAGCAUCA
B14: chr20:17587764:17587765:+_ENSG00000125868_ENST00000474024|hu_mus|FALSE|FALSE (ssRNA)
RNA: GGGAGUUCUACAGUCCGACGAUCGCACUGACUGGCGGUCUACACAGGGGAUCCUUCAAAGGCUACAAUUAAGGAGCCACCUAGCUUUUCAGCAAUACAGGUCCGAUUGAGGUCUUCUGGCCCAUUUGCUUGAUACUCAUGCUUCAACAGAGGAUUGAGCAUCA
B15: chr11:102151369:102151370:-_ENSMUSG00000059995_ENSMUST00000137387|mus_mus|FALSE|FALSE (ssRNA)
RNA: GGGAGUUCUACAGUCCGACGAUCUAUGCUUGGUAGUGGGGCCGGCCCGAGAACCUUCUUUCCCCCUCUAGCGAGAAGGCUAUGGAGGGCCAAGGACAGAGGGGCCCAGGCUCCAAGGAUUUAUUCUAACUCCUGCCAAAAUUACAACAGAGGAUUGAGCAUCA
B16: chr7:138189096:138189097:+_ENSG00000122779_ENST00000415680|hu_mus|FALSE|FALSE (ssRNA)
RNA: GGGAGUUCUACAGUCCGACGAUCAGACUUUUCUACUGUACUACUAGGAACUUCAGUGGUGUCCUUCACAAAAAAGUUGUCUAUGAUGUGUCUCUCAGCACACUCUUGACUGCAAACUGGGCAUCGAAUGACUCCAACUUGGGUCAACAGAGGAUUGAGCAUCA
B17: chr13:51246309:51246310:+_ENSMUSG00000021395_ENSMUST00000095797|mus_mus|FALSE|FALSE (ssRNA)
RNA: GGGAGUUCUACAGUCCGACGAUCUGCCUAUGAGAAAACACUGAGCACACAACGAUUGCAGCCAAGGACAGAACUGAGGUACUAUGUUCACAUGGUGAGCAGUUGUGACCACCCAGCAGUGUAAGGUGGUCAGCCUCUGUGAAACAACAGAGGAUUGAGCAUCA
B18: chr14:76904540:76904541:+_ENSMUSG00000022010_ENSMUST00000022587|mus_hu|FALSE|FALSE (ssRNA)
RNA: GGGAGUUCUACAGUCCGACGAUCAAAGAAAUUGAAAAAUGUCUCAGUUGGUAAACUCCUAGAUCCAUCGCCACUGGUCUACACCAUUGGGAUUUCAUGCAAUUGCAGCCAAAAACACCCUCGUGGAAAAAAAGAGGGAACACCCAACAGAGGAUUGAGCAUCA
B19: chr5:128440902:128440903:+_ENSG00000066583_ENST00000173527|hu_hu|FALSE|FALSE (ssRNA)
RNA: GGGAGUUCUACAGUCCGACGAUCUUGAACCGUGCUCCCAAGACCUUUAGGGUAUUGUUCUGUUACAAUAACAGGAAUUCCUAAAAUCCGGGCCCCUUGCAACAAUCUCUGUCCCACGCUAAUAAUAUCCCCAAAAUACUUGAUCAACAGAGGAUUGAGCAUCA
B20: chr17:21098601:21098602:+_ENSMUSG00000007564_ENSMUST00000007708|mus_mus|motif|central (ssRNA)
RNA: GGGAGUUCUACAGUCCGACGAUCGGCUAAGACCUUGGGGAUGAUAGUGGCAUGGGCCCACUCCUUCCCGAACUUCUCGGCGGAUUUCUUAAGGUUGCUGGUGGCAGCCUCACGGAUAGCAUAGACAUGAUCCACUAGCCAGGCCAACAGAGGAUUGAGCAUCA
B21: chr2:129036499:129036500:+_ENSMUSG00000027397_ENSMUST00000028880|mus_hu|FALSE|FALSE (ssRNA)
RNA: GGGAGUUCUACAGUCCGACGAUCGAAGAUUGCCAUGAUGGCAGCACUGAUAACUCCAGAAAUGGGGACUGUGACAAACCAGGCCAUAAAAAUGUUACGAAAGAGACGCCAGUCAACAGCCUUCUUGGACCGGAGCCAGCCAACCAACAGAGGAUUGAGCAUCA
B22: chr3:103125490:103125491:+_ENSMUSG00000033014_ENSMUST00000106860|mus_mus|FALSE|FALSE (ssRNA)
RNA: GGGAGUUCUACAGUCCGACGAUCAAGAAGCUUAGCCAACAGAUUUUCAAUUGCACCUUUCUGAUUUUGAAAAGCCUCUUCUAAAAACUGAUACCUAUGUUCUUUGUGCUCCAAAAGUUGACAGUCUCUACACGUCAAUCUAUCCAACAGAGGAUUGAGCAUCA

Target: T1, UNK ZnF1-3 (human, UniProt Q9C0B0 31-174)
T1 sequence: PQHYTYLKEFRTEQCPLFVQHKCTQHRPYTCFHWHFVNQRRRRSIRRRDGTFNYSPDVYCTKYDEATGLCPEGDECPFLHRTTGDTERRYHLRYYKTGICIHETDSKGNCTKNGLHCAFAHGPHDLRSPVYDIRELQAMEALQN
Experiment: nsRBNS (natural sequence RNA bind-n-seq); RBNS binding buffer (assumed for nsRBNS): 25 mM Tris pH 7.5, 150 mM KCl, 3 mM MgCl2, 0.01% Triton X-100, 500 ug/ml BSA, 20 U/ml SUPERase-In, 4 C; UNK is unkempt and MSI1 is Musashi-1; names of the RNAs are library labels; protein concentration not given here; high values mean tight binding

| Binder | binding signal [enrichment R] |
| --- | --- |
| B1 | 0.639 |
| B2 | 0.448 |
| B3 | 0.764 |
| B4 | 0.692 |
| B5 | 1.21 |
| B6 | 1.15 |
| B7 | 0.884 |
| B8 | 0.566 |
| B9 | 0.598 |
| B10 | 0.739 |
| B11 | 0.768 |
| B12 | 0.671 |
| B13 | 0.467 |
| B14 | 0.906 |
| B15 | 0.46 |
| B16 | 0.977 |
| B17 | 0.849 |
| B18 | 1.61 |
| B19 | 1.03 |
| B20 | 1.07 |
| B21 | 1.81 |
| B22 | 1.12 |
